Source: article PMC9911399, “Two distinct binding modes provide the RNA-binding protein RbFox with extraordinary sequence specificity”
Residue numbers refer to the chain shown, from its start. This is one part of the list.

T1: RBFOX1 RRM RbFoxmut (Fox-RRM*) (Homo sapiens, UniProt Q9NWB1 109-208, R118D;E147R;N151S;E152T)
T1 sequence: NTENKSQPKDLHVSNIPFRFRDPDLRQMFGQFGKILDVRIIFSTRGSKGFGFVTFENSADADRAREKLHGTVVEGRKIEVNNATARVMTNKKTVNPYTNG

B1: AUAUGAG (DNA:RNA)
RNA: GGGAGACCGGAAUUCAGAUUGUCCAUAUGAGUUAAAUCCCGUCGUAGCCACCA
DNA 1: CAATCTGAATTCCGGTCTCCC
DNA 2: TGGTGGCTACGACGGGATT
B2: GAGAUCC (DNA:RNA)
RNA: GGGAGACCGGAAUUCAGAUUGUCCGAGAUCCUUAAAUCCCGUCGUAGCCACCA
DNA 1: CAATCTGAATTCCGGTCTCCC
DNA 2: TGGTGGCTACGACGGGATT
B3: AUAAGAC (DNA:RNA)
RNA: B1 RNA with U28A, G31C
DNA 1: CAATCTGAATTCCGGTCTCCC
DNA 2: TGGTGGCTACGACGGGATT
B4: ACGGUGA (DNA:RNA)
RNA: B2 RNA with G25A, A26C, A28G, C30G, C31A
DNA 1: CAATCTGAATTCCGGTCTCCC
DNA 2: TGGTGGCTACGACGGGATT
B5: GGGUCAA (DNA:RNA)
RNA: B1 RNA with A25G, U26G, A27G, G29C, G31A
DNA 1: CAATCTGAATTCCGGTCTCCC
DNA 2: TGGTGGCTACGACGGGATT
B6: AACCUAC (DNA:RNA)
RNA: B2 RNA with G25A, G27C, A28C, C30A
DNA 1: CAATCTGAATTCCGGTCTCCC
DNA 2: TGGTGGCTACGACGGGATT
B7: GGGCAAG (DNA:RNA)
RNA: B1 RNA with A25G, U26G, A27G, U28C, G29A
DNA 1: CAATCTGAATTCCGGTCTCCC
DNA 2: TGGTGGCTACGACGGGATT
B8: UUCCAAU (DNA:RNA)
RNA: B1 RNA with A25U, A27C, U28C, G29A, G31U
DNA 1: CAATCTGAATTCCGGTCTCCC
DNA 2: TGGTGGCTACGACGGGATT
B9: UCAACAA (DNA:RNA)
RNA: B1 RNA with A25U, U26C, U28A, G29C, G31A
DNA 1: CAATCTGAATTCCGGTCTCCC
DNA 2: TGGTGGCTACGACGGGATT
B10: AGUAACG (DNA:RNA)
RNA: B1 RNA with U26G, A27U, U28A, G29A, A30C
DNA 1: CAATCTGAATTCCGGTCTCCC
DNA 2: TGGTGGCTACGACGGGATT
B11: CGGAACA (DNA:RNA)
RNA: B2 RNA with G25C, A26G, U29A, C31A
DNA 1: CAATCTGAATTCCGGTCTCCC
DNA 2: TGGTGGCTACGACGGGATT
B12: GGCUCUC (DNA:RNA)
RNA: B2 RNA with A26G, G27C, A28U, U29C, C30U
DNA 1: CAATCTGAATTCCGGTCTCCC
DNA 2: TGGTGGCTACGACGGGATT
B13: CGUAACC (DNA:RNA)
RNA: B2 RNA with G25C, A26G, G27U, U29A
DNA 1: CAATCTGAATTCCGGTCTCCC
DNA 2: TGGTGGCTACGACGGGATT
B14: GCCAGCA (DNA:RNA)
RNA: B2 RNA with A26C, G27C, U29G, C31A
DNA 1: CAATCTGAATTCCGGTCTCCC
DNA 2: TGGTGGCTACGACGGGATT
B15: GGACAUC (DNA:RNA)
RNA: B2 RNA with A26G, G27A, A28C, U29A, C30U
DNA 1: CAATCTGAATTCCGGTCTCCC
DNA 2: TGGTGGCTACGACGGGATT
B16: CUGCGCC (DNA:RNA)
RNA: B2 RNA with G25C, A26U, A28C, U29G
DNA 1: CAATCTGAATTCCGGTCTCCC
DNA 2: TGGTGGCTACGACGGGATT
B17: AACUCCG (DNA:RNA)
RNA: B1 RNA with U26A, A27C, G29C, A30C
DNA 1: CAATCTGAATTCCGGTCTCCC
DNA 2: TGGTGGCTACGACGGGATT
B18: CUAGGGA (DNA:RNA)
RNA: B1 RNA with A25C, U28G, A30G, G31A
DNA 1: CAATCTGAATTCCGGTCTCCC
DNA 2: TGGTGGCTACGACGGGATT
B19: AGAACUU (DNA:RNA)
RNA: B1 RNA with U26G, U28A, G29C, A30U, G31U
DNA 1: CAATCTGAATTCCGGTCTCCC
DNA 2: TGGTGGCTACGACGGGATT
B20: UAUGGUC (DNA:RNA)
RNA: B2 RNA with G25U, G27U, A28G, U29G, C30U
DNA 1: CAATCTGAATTCCGGTCTCCC
DNA 2: TGGTGGCTACGACGGGATT

target: T1, RBFOX1 RRM RbFoxmut (Fox-RRM*); assay: EMSA; HiTS-Eq, 1 nM pool, 10 min; buffer printed only for the single-RNA assays: 10 mM Tris pH 7.5, 150 mM NaCl, 3.4 mM EDTA, 0.001% NP-40, 30 C; settings: tags: His6 N-terminal (pET28a); label: 5' 32P
Outline: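 These values rest on relative association constants, computed from read-count changes of each RNA species versus the control reaction and normalised to the cognate motif. Reads came from free RNA recovered by 8% native PAGE after purified RbFox RRM (wild type or mutant) at increasing concentrations was equilibrated for 10 min in 50 µL with 1 nM of a 5′-radiolabelled pool with 7 randomized nucleotides and DNA-annealed flanks.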

Binder	binding signal
B1	0.153 KA relative to UGCAUGU
B2	0.0646 KA relative to UGCAUGU
B3	0.0774 KA relative to UGCAUGU
B4	0.117 KA relative to UGCAUGU
B5	0.0941 KA relative to UGCAUGU
B6	0.0951 KA relative to UGCAUGU
B7	0.0894 KA relative to UGCAUGU
B8	0.0569 KA relative to UGCAUGU
B9	0.0653 KA relative to UGCAUGU
B10	0.13 KA relative to UGCAUGU
B11	0.0809 KA relative to UGCAUGU
B12	0.0755 KA relative to UGCAUGU
B13	0.077 KA relative to UGCAUGU
B14	0.112 KA relative to UGCAUGU
B15	0.164 KA relative to UGCAUGU
B16	0.221 KA relative to UGCAUGU
B17	0.0558 KA relative to UGCAUGU
B18	0.0532 KA relative to UGCAUGU
B19	0.0698 KA relative to UGCAUGU
B20	0.156 KA relative to UGCAUGU
